Experimental data taken from PubChem BioAssay AID588855 (National Center for Advancing Translational Sciences (NCATS), 2011).
Out of some 410,000 compounds screened, about 5,000 (1.2%) were called active. This list was built around the results that the source calls inconclusive (neither active nor inactive); the mix of calls is not that of the screen. Calls follow the shape of the dose curve; as a rule, active = well fitted inhibition curve with a large enough effect; inconclusive = small, poorly fitted or top-dose-only effect; inactive = no such curve, though single readings can be large or run the other way. Potencies beside an inconclusive call are fits to weak or partial responses and may not hold up.

test: qHTS for Inhibitors of TGF-b; settings: HepG2 CAGA-GFP TGF-b/SMAD3 reporter, GFP fluorescence, 18 h, TGF-beta stimulated, 500 pg/mL final; series mostly up to 46.1 µM; also: nearly all actives have a fitted effect of over 65% in size
In short: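 Using HEPG2 CAGA-GFP reporter cells at 1000 cells/well, we pinned test compounds, stimulated with recombinant TGF-beta (500 pg/mL final) and measured total well GFP after 18 h.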
Potency is read from the fitted curve at half-maximal effect; tags tell the direction and shape of the fitted curve.

Question: For `COc1ccc(NC(=O)CN(C)C(=O)COc2ccccc2Cc2ccccc2)cc1`, which Potency is on record?
Answer: Its Potency is inconclusive: 35.5 µM [inhibitor, single point].

Question: Which Potency does the source give for `COc1ccc(NC(=O)c2ccc([N+](=O)[O-])o2)cc1` here?
Answer: The Potency was active: 11.2 µM.

Question: For `CCOC(=O)C(=Cc1ccc(-c2ccsc2C(=O)OC)o1)C(=O)OCC`, which Potency is on record?
Answer: Its Potency is inconclusive: 12.6 µM [inhibitor, partial curve, poor fit].

Question: With `COc1ccc(OC)c(Cc2nnc(CCC(=O)NCc3nc4ccccc4s3)o2)c1` as the compound, how does the Potency read?
Answer: Its Potency is “inactive”.

Question: With `CC1(C)CCc2cc(-c3ccn(S(=O)(=O)c4ccccc4Cl)n3)ccc2O1` as the compound, how does the Potency read?
Answer: The Potency was “inactive”.

Question: For `COc1ccc(C2c3cc(OC)c(OC)cc3CC(=O)N2c2ccc(C)c(F)c2)cc1` (centres undefined), which Potency is on record?
Answer: The Potency was inconclusive: 22.4 µM [inhibitor, single point].

Question: For `COc1ccc(-n2nc3cc(C)c(NC(C)=O)cc3n2)cc1`, which Potency is on record?
Answer: The Potency was “inactive”.

Question: Which Potency does the source give for `O=C(NC1CCCCCC1)c1cc(S(=O)(=O)N2CCOCC2)ccc1N1CCCCC1` here?
Answer: The Potency was inconclusive: 35.5 µM [inhibitor, single point].

Question: With `COCCN1C(=O)c2ccccc2C(C(=O)NCCN(C)C)C1c1ccc(F)cc1` (centres undefined) as the compound, how does the Potency read?
Answer: The Potency was “inactive”.

Question: For `CCCN(C)C[C@@H]1OCCCC[C@@H](C)Oc2ccc(NS(=O)(=O)c3ccc(OC)cc3)cc2C(=O)N([C@H](C)CO)C[C@@H]1C`, which Potency is on record?
Answer: The Potency was inconclusive: 12.6 µM [inhibitor, single point].

Question: With `C=CCc1ccccc1OCC(O)CN1CCN(c2ccccc2OC)CC1` (centres undefined) as the compound, how does the Potency read?
Answer: The Potency was inconclusive: 17.8 µM [inhibitor, single point].

Question: Which Potency does the source give for `N#Cc1ccccc1OCC(=O)Nc1nnc(C2CC2)s1` here?
Answer: The Potency was “inactive”.

Question: For `N#C/C(=C\Nc1ccc2c(c1)OCCO2)c1nc2ccccc2[nH]1`, which Potency is on record?
Answer: Its Potency is inconclusive: 35.5 µM [inhibitor, single point].

Question: Which Potency does the source give for `O=C(CCCc1nc(-c2ccc(Cl)cc2)no1)Nc1cccnc1` here?
Answer: Its Potency is inconclusive: 6.31 µM [inhibitor, full curve, poor fit].

Question: With `CCN(c1ccccc1)S(=O)(=O)c1c(-c2ccc(C)cc2)csc1C(=O)OC` as the compound, how does the Potency read?
Answer: The Potency was inconclusive: 1.26 µM [inhibitor, full curve, poor fit].

Question: Which Potency does the source give for `CC1(Cc2ccccc2Cl)C(=O)Nc2c(Cl)ccc(Cl)c21` (centres undefined) here?
Answer: The Potency was inconclusive: 15.8 µM [inhibitor, single point].

Question: Which Potency does the source give for `NC(=O)CC(NC(=O)Cc1cccc2ccccc12)c1ccc(NCCOc2ccccc2)c([N+](=O)[O-])c1` (centres undefined) here?
Answer: Its Potency is inconclusive: 20 µM [inhibitor, partial curve, poor fit].

Question: For `O=C(CCCN1C(=O)S/C(=C/C=C/c2ccccc2)C1=O)Nc1ccc(C(=O)O)cc1`, which Potency is on record?
Answer: Its Potency is “inactive”.

Question: For `O=C(COc1ccccc1)OCc1cc(-c2ccco2)on1`, which Potency is on record?
Answer: Its Potency is “inactive”.

Question: For `O=C(CSc1nc2ccccc2n1Cc1ccccc1)N/N=C/c1ccco1`, which Potency is on record?
Answer: The Potency was “inactive”.

Question: For `Cc1oc(C(C)(C)C)cc1C(=O)N1CCN(c2ccc(C(F)(F)F)cn2)CC1`, which Potency is on record?
Answer: The Potency was inconclusive: 11.2 µM [inhibitor, partial curve].

Question: With `O=C1CCC(C(=O)N2CCCC(C(=O)c3ccc4ccccc4c3)C2)=NN1` (centres undefined) as the compound, how does the Potency read?
Answer: The Potency was “inactive”.

Question: Which Potency does the source give for `COCCNc1nc(NCc2cccc(Cl)c2)c2cnn(C)c2n1` here?
Answer: The Potency was “inactive”.

Question: For `O=S1(=O)CC(N2CCC(c3ccccc3)CC2)CN1Cc1ccc(F)cc1` (centres undefined), which Potency is on record?
Answer: The Potency was inconclusive: 0.631 µM [inhibitor, full curve, poor fit].

Question: With `CCN(CC(=O)NC(C)(C)C)C(=O)CCl` as the compound, how does the Potency read?
Answer: Its Potency is “inactive”.

Question: With `CCc1cccc(C)c1NC(=O)Cn1nc(C)c2nn(-c3ccc(Cl)cc3)c(C)c2c1=O` as the compound, how does the Potency read?
Answer: Its Potency is inconclusive: 8.91 µM [inhibitor, partial curve].

Question: With `CC(C)(C)NNC(=S)Nc1cccc(F)c1` as the compound, how does the Potency read?
Answer: Its Potency is inconclusive: 7.94 µM [inhibitor, partial curve, poor fit].

Question: For `COc1ccc(-n2c(-c3ccc(Br)cc3)c[n+]3c2CCc2ccccc2-3)cc1`, which Potency is on record?
Answer: The Potency was inconclusive: 35.5 µM [inhibitor, single point].

Question: With `O=C(/C=C/c1ccc(Cl)cc1Cl)c1cccnc1` as the compound, how does the Potency read?
Answer: The Potency was inconclusive: 35.5 µM [inhibitor, single point].

Question: With `Cc1cc(=O)[nH]c2c(N=Nc3ccc(O)cc3)c(N)nn12` as the compound, how does the Potency read?
Answer: Its Potency is “inactive”.

Question: Which Potency does the source give for `CN(C)c1ccc(Nc2ncnc3sc4c(c23)CCCC4)cc1` here?
Answer: The Potency was “inactive”.

Question: For `O=C(c1cccc(C(F)(F)F)c1)N1CCC(O)(CS(=O)(=O)Cc2ccccc2Cl)CC1`, which Potency is on record?
Answer: The Potency was “inactive”.

Question: Which Potency does the source give for `C=C(C)C1CCC(C)=C1COC(=O)Nc1ccccc1` (centres undefined) here?
Answer: Its Potency is inconclusive: 11.2 µM [inhibitor, partial curve, poor fit].

Question: Which Potency does the source give for `CCOC(=O)C(Cc1c[nH]c2ccccc12)NC(=O)COc1ccc(CC)cc1` (centres undefined) here?
Answer: Its Potency is inconclusive: 35.5 µM [inhibitor, partial curve, poor fit].

Question: Which Potency does the source give for `CC(C)(C)c1ccc(N/N=C(\C#N)S(=O)(=O)C(C)(C)C)cc1` here?
Answer: Its Potency is inconclusive: 35.5 µM [inhibitor, single point].

Question: With `COc1ccc(C)cc1N(C)C(=O)CCc1nc(-c2ccccc2F)no1` as the compound, how does the Potency read?
Answer: Its Potency is inconclusive: 17.8 µM [inhibitor, single point].

Question: Which Potency does the source give for `O=C1C(c2ccc(F)cc2)N(CCc2ccccc2)C(=O)CN1C1CCCCCC1` (centres undefined) here?
Answer: Its Potency is “inactive”.

Question: For `CCN(C(=O)CSc1nc2ccccc2n1Cc1ccc(F)cc1Cl)c1ccccc1`, which Potency is on record?
Answer: Its Potency is inconclusive: 5.62 µM [inhibitor, single point].

Question: Which Potency does the source give for `COc1ccc2cc(/C=N/NC(=O)c3ccc(CN(c4cccc(Cl)c4Cl)S(C)(=O)=O)cc3)c(Cl)nc2c1` here?
Answer: Its Potency is inconclusive: 3.55 µM [inhibitor, single point].

Question: With `O=C(CCS(=O)(=O)c1ccccc1Cl)Nc1ccc(S(=O)(=O)Nc2ncccn2)cc1` as the compound, how does the Potency read?
Answer: The Potency was inconclusive: 6.31 µM [inhibitor, single point].

Question: For `CCOC(=O)C1=CCC(c2ccc(F)cc2)N(S(=O)(=O)c2ccc(C)cc2)C1` (centres undefined), which Potency is on record?
Answer: Its Potency is inconclusive: 10 µM [inhibitor, partial curve].

Question: For `COc1ccc(CCNC(=O)c2c(C)oc3ncn(C)c(=O)c23)c(OC)c1`, which Potency is on record?
Answer: The Potency was “inactive”.

Question: With `C=CCNCCOCCOc1ccc(Cl)cc1C(C)(C)C` as the compound, how does the Potency read?
Answer: Its Potency is inconclusive: 35.5 µM [inhibitor, single point].

Question: With `COc1cccc2c1OCC(C(=O)NCc1ccc(Cl)cc1Cl)=C2` as the compound, how does the Potency read?
Answer: Its Potency is inconclusive: 12.6 µM [inhibitor, partial curve, poor fit].

Question: For `CCOc1ccccc1-c1ccc(C(=O)NCc2ccccc2)o1`, which Potency is on record?
Answer: The Potency was inconclusive: 15.8 µM [inhibitor, single point].

Question: With `COCC(C)n1c(C)cc(C(=O)CN2C(=O)NC(Cc3c[nH]c4ccccc34)C2=O)c1C` (centres undefined) as the compound, how does the Potency read?
Answer: The Potency was inconclusive: 3.55 µM [inhibitor, single point].

Question: Which Potency does the source give for `Cc1ccc(C)c(N2CCN(C(=O)CCCOc3cc(=O)n(C)c4ccccc34)CC2)c1` here?
Answer: Its Potency is “inactive”.

Question: With `Cc1cc(C)c(S(=O)(=O)NCc2csc(C)n2)c(C)c1` as the compound, how does the Potency read?
Answer: Its Potency is “inactive”.

Question: Which Potency does the source give for `O=C(COc1ccccc1F)Nc1cc(S(=O)(=O)Nc2cccc(Cl)c2)ccc1O` here?
Answer: Its Potency is inconclusive: 35.5 µM [inhibitor, single point].

Question: With `CC1=NN(c2ccc(C(F)(F)F)cn2)C(=O)C1` as the compound, how does the Potency read?
Answer: Its Potency is inconclusive: 22.4 µM [inhibitor, single point].

Question: With `CCC(=O)N1CCc2cc(S(=O)(=O)NC(C(=O)NCc3ccc(C)cc3)C(C)C)ccc21` (centres undefined) as the compound, how does the Potency read?
Answer: Its Potency is “inactive”.

Question: With `COc1ccccc1-c1sc2cc3c(cc2c1C#Cc1ccccn1)OCO3` as the compound, how does the Potency read?
Answer: The Potency was inconclusive: 22.4 µM [inhibitor, single point].

Question: For `Cc1nc2cc(NC(=O)c3ccc(S(=O)(=O)N(C)c4ccccc4)cc3)ccc2o1`, which Potency is on record?
Answer: Its Potency is inconclusive: 1.12 µM [inhibitor, partial curve].

Question: Which Potency does the source give for `Cc1cc(=O)[nH]c(SCC(=O)Nc2c(C)n(C)n(-c3ccccc3)c2=O)c1C#N` here?
Answer: Its Potency is “inactive”.

Question: For `COc1ccc(F)cc1S(=O)(=O)Nc1cccc(-c2ccc(N3CCC(C)CC3)nn2)c1`, which Potency is on record?
Answer: Its Potency is inconclusive: 10 µM [inhibitor, partial curve, poor fit].

Question: Which Potency does the source give for `CCN(CC)c1ccc(NC(=O)Cn2c(C(C)NC(=O)c3ccc(C)cc3)nc3ccccc32)cc1` (centres undefined) here?
Answer: The Potency was “inactive”.

Question: For `COc1ccc(C(=O)Nc2nc(-c3nnn(-c4ccc(C(C)C)cc4)c3C)ns2)cc1`, which Potency is on record?
Answer: The Potency was inconclusive: 0.1 µM [inhibitor, full curve, poor fit].

Question: For `Cc1ccc(NC(=O)Cn2c(=O)oc3ccccc32)c(C)c1`, which Potency is on record?
Answer: The Potency was “inactive”.

Question: With `C[C@@H](C(=O)N[C@@H](Cc1c[nH]c2ccccc12)C(=O)O)n1nnc2ccccc2c1=O` as the compound, how does the Potency read?
Answer: Its Potency is “inactive”.

Question: For `CCOC(=O)C1=CNS(=O)(=O)NC1c1cccc(O)c1` (centres undefined), which Potency is on record?
Answer: Its Potency is “inactive”.

Question: With `CCOC(=O)C1=C(CSc2nc(-c3ccccc3)ccc2C#N)OC(N)=C(C#N)C1c1ccccc1` (centres undefined) as the compound, how does the Potency read?
Answer: Its Potency is inconclusive: 11.2 µM [inhibitor, single point].

Question: Which Potency does the source give for `CCOc1ccc(OCC)c(S(=O)(=O)NCc2ccccc2)c1` here?
Answer: Its Potency is “inactive”.

Question: For `Cc1ccc(/C=C2\SC(=S)N(CCC(=O)Nc3cccnc3)C2=O)cc1`, which Potency is on record?
Answer: Its Potency is “inactive”.

Question: Which Potency does the source give for `CCN(CC)c1ccc(CNc2nc3ccccc3n2C(C)C)cc1` here?
Answer: The Potency was inconclusive: 20 µM [inhibitor, single point].

Question: Which Potency does the source give for `OCC1(Cc2cccc(C(F)(F)F)c2)CCN(Cc2cc(F)cc(F)c2)CC1` here?
Answer: Its Potency is inconclusive: 35.5 µM [inhibitor, single point].

Question: For `O=S(=O)(Nc1ccccc1O)c1ccc(-c2ccccc2)cc1`, which Potency is on record?
Answer: The Potency was inconclusive: 15.8 µM [inhibitor, single point].

Question: Which Potency does the source give for `CCCCS(=O)(=O)c1oc(-c2ccc(F)cc2)nc1S(=O)(=O)c1ccc(C)cc1` here?
Answer: Its Potency is active: 4.47 µM.

Question: For `COc1ccc(-c2c(C)c3ccc(O)c(CN4CCN(CCO)CC4)c3oc2=O)cc1OC`, which Potency is on record?
Answer: Its Potency is “inactive”.

Question: For `CC(C)(C)OC(=O)N1CCC(c2c(C(=O)NCCc3ccccc3)cnn2-c2ccc(F)cc2F)CC1`, which Potency is on record?
Answer: The Potency was inconclusive: 28.2 µM [inhibitor, single point].
